In the supplement of paper PMC8792480:
This is one part of the list. Many values rest on one well or one pass, so single values are uncertain.

Experiments:
[1] = system: NCI-H460; assay: cell-surface PD-L1 MFI ratio relative to radiation alone (isotype-subtracted); higher = higher PD-L1 surface expression; conditions: inducer: radiation 8 Gy; 10 µM; 24 h
Description: (§1)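 A549 and H460 NSCLC cells were treated with each library drug at 10 uM, then with radiation (8 Gy) or cisplatin (4 uM), and incubated for 24 h. Cell-surface PD-L1 was measured by flow cytometry as an MFI ratio: (MFI drug+inducer - MFI isotype)/(MFI inducer alone - MFI isotype). Hits were defined as ratio < 0.75.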

[2] = system: NCI-H460; assay: cell-surface PD-L1 MFI ratio relative to cisplatin alone (isotype-subtracted); higher = higher PD-L1 surface expression; conditions: inducer: cisplatin 4 uM; 10 µM; 24 h
Description: as §1
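Wherever cell-surface PD-L1 MFI ratio relative to radiation alone (isotype-subtracted) is given: surface PD-L1 on NSCLC cells stained with a PE-labelled anti-human PD-L1 antibody before flow cytometry, screening a library of roughly two hundred mostly kinase and epigenetic inhibitors.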

SMILES	cell-surface PD-L1 MFI ratio [1]	cell-surface PD-L1 MFI ratio [2]
C[C@@H](Oc1ccc2[nH]nc(/C=C/c3cnn(CCO)c3)c2c1)c1c(Cl)cncc1Cl	inactive: 1.36	inactive: 1.21
CCN(CC)CCNC(=O)c1c(C)[nH]c(/C=C2\C(=O)Nc3ccc(F)cc32)c1C [Sunitinib]	inactive: 20.3	inactive: 17.7
c1ccc2c(-c3cnn4cc(-c5ccc(N6CCNCC6)cc5)cnc34)ccnc2c1	inactive: 1.04	inactive: 2.12
O=C(Nc1ccc2[nH]nc(-c3ccncc3)c2c1)[C@@H]1CCN(CC(=O)N2CCN(c3ccc(-c4ncccn4)cc3)CC2)C1	inactive: 1.24	inactive: 0.912
Nc1nc(F)nc2c1ncn2[C@@H]1O[C@H](CO)[C@@H](O)[C@@H]1O [Fludarabine]	inactive: 1.06	inactive: 1.3
COc1ccc2c(c1)[C@]1(C[C@H]1c1ccc3c(/C=C/c4ccc(CN5C[C@@H](C)O[C@@H](C)C5)cc4)n[nH]c3c1)C(=O)N2	inactive: 1.24	inactive: 1.85
CCOc1cc(N2CCC(O)CC2)ccc1Nc1ncc2c(n1)N(C)c1ccccc1C(=O)N2C	inactive: 1.11	active: 0.749
NC(=O)c1ncn([C@@H]2O[C@H](CO)[C@@H](O)[C@H]2O)c1N [AICAR (Acadesine)]	inactive: 1.45	inactive: 1.09
CS(=O)(=O)CCNCc1ccc(-c2ccc3ncnc(Nc4ccc(OCc5cccc(F)c5)c(Cl)c4)c3c2)o1	inactive: 1.25	inactive: 1.18
C[C@H](NC(=O)c1c(N)nn2cccnc12)c1cc2cccc(C#Cc3cnn(C)c3)c2c(=O)n1-c1ccccc1	inactive: 0.845	inactive: 1.25
Nc1ccc(C(=O)Nc2cccc(-c3nc(N4CCOCC4)c4oc5ncccc5c4n3)c2)cn1	inactive: 0.81	active: 0.627
O=C(c1cc(Cc2n[nH]c(=O)c3ccccc23)ccc1F)N1CCN(C(=O)C2CC2)CC1 [Olaparib]	inactive: 1.18	inactive: 1.03
O=C(N/N=C/c1ccc([N+](=O)[O-])o1)c1ccc(O)cc1 [Nifuroxazide]	inactive: 1.2	inactive: 1.31
CN(C)C(=O)c1ccc(S(=O)(=O)c2ccc(NC(=O)[C@@](C)(O)C(F)(F)F)c(Cl)c2)cc1	inactive: 1.34	inactive: 1.51
CC[C@H](C)C(=O)O[C@H]1C[C@@H](C)C=C2C=C[C@H](C)[C@H](CC[C@@H]3C[C@@H](O)CC(=O)O3)[C@H]21 [Lovastatin]	inactive: 0.97	inactive: 0.848
O=C(/C=C\n1cnc(-c2cc(C(F)(F)F)cc(C(F)(F)F)c2)n1)NNc1cnccn1 [Selinexor (KPT-330)]	inactive: 1.04	inactive: 0.984
Cc1[nH]c2ccccc2c1CCNCc1ccc(/C=C/C(=O)NO)cc1 [Panobinostat]	inactive: 0.786	inactive: 0.872
Clc1ccc(NN=C(c2ccccc2)c2ccccn2)nc1	inactive: 1.03	active: 0.567
CCS(=O)(=O)N1CC(CC#N)(n2cc(-c3ncnc4[nH]ccc34)cn2)C1	inactive: 1.06	inactive: 1.24
CN1c2ccccc2C(=O)Nc2cnc(Nc3ccc(N4CCC(O)CC4)cc3)nc21	inactive: 1.51	inactive: 1.95
CC(=O)Oc1ccccc1C(=O)O [Aspirin]	inactive: 0.935	inactive: 1.35
COc1ccc(S(=O)(=O)N(CCO)c2ccccc2CN(C)C/C=C/c2ccc(Cl)cc2)cc1 [KN-93 Phosphate]	inactive: 0.976	inactive: 1.39
COc1cc2ncnc(Nc3ccc(F)c(Cl)c3)c2cc1OCCCN1CCOCC1 [Gefitinib]	inactive: 1.32	inactive: 1.58
Cc1cccc(CC(=O)N2CCc3c2ccc(-c2cn(C)c4ncnc(N)c24)c3F)n1	inactive: 1.12	inactive: 1.28
Nc1ncn([C@H]2C[C@H](O)[C@@H](CO)O2)c(=O)n1 [Decitabine]	inactive: 1.25	inactive: 1.19
CN(C(=O)c1ccc(F)cc1C(F)(F)F)C1CCN(c2nnc(-c3ccnn3C)c3ccccc23)CC1	inactive: 1.38	inactive: 1.14
CC(=O)Nc1cccc(-n2c(=O)n(C3CC3)c(=O)c3c(Nc4ccc(I)cc4F)n(C)c(=O)c(C)c32)c1	inactive: 0.923	inactive: 0.848
COc1ncc(-c2ccc3nccc(-c4ccnnc4)c3c2)cc1NS(=O)(=O)c1ccc(F)cc1F	inactive: 0.798	active: 0.603
